Measured values as given in publication PMC12136788.
The other results are listed elsewhere or left out.

T1: UNK ZnF1-3 (human, UniProt Q9C0B0 31-174)
T1 sequence: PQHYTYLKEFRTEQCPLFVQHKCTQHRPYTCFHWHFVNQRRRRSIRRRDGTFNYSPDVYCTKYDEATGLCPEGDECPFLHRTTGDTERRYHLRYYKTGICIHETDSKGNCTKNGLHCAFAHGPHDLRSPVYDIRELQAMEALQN

B1: chr4:115894766:115894767:+_ENSMUSG00000028698_ENSMUST00000030464|mus_hu|mus_mus_mus_hu_True|88_88 (ssRNA)
RNA: GGGAGUUCUACAGUCCGACGAUCUUCCACACGGAAAUGUACUUCGGGUUUCCAACGGGCCAGUACCAGUCCGGCCAAACUACCCGAACAGGGUCCUCCCCCUCUCUCCUACAGAACACAACAAAAUGCCCCCGAACUUUCAAGCAACAGAGGAUUGAGCAUCA
B2: chr17:29398750:29398751:-_ENSMUSG00000024007_ENSMUST00000024802|mus_mus|FALSE|FALSE (ssRNA)
RNA: GGGAGUUCUACAGUCCGACGAUCGUCGCCGCCUUGGAUCAUGAAGUCCUUGAUGAUCCUGUGGAACUUGGUGCCAUUGUAGUAGCCCCGCCGAGCCAGCUCCGCGAAGUUCUUGCAGGUCUUGGGCGCAUGCUUCCAGUAUAGCAACAGAGGAUUGAGCAUCA
B3: chr17:57756778:57756779:+_ENSG00000141367_ENST00000269122|hu_mus|FALSE|FALSE (ssRNA)
RNA: GGGAGUUCUACAGUCCGACGAUCACUACCCCACAAUUCUGGAUCCUUUCGACGGACUAAGUAGCGAGAAAGGCUUUUGAAGAGGGAAUUCUCAUUGCAAACAUUGAUGAGCUCCAGGUCACACUGGCCACGUUCAUAAGCAACCAACAGAGGAUUGAGCAUCA
B4: chr9:44212477:44212478:-_ENSMUSG00000032112_ENSMUST00000034623|perfect_dup|FALSE|FALSE (ssRNA)
RNA: GGGAGUUCUACAGUCCGACGAUCUGGAUUCUUGAGGGCAAAGUCUGAGUAAAUCUCAUAAAUCUUUCGGAGAAGAGAAUCUAUUCCAGCUUGCCUAGGAUCUGCUAGAACCACAAACUUGAUCCCUGUCAGUGUCUGGUAGCACAACAGAGGAUUGAGCAUCA
B5: chr2:198351390:198351391:-_ENSG00000144381_ENST00000345042|hu_hu|hu_hu_hu_mus_False|8_68 (ssRNA)
RNA: GGGAGUUCUACAGUCCGACGAUCUCAUUCCCACCCUCCACAGAAAGGCUGCUUCUGAACUCUCAUGGUGGUGGCAAGCGCUACAGUCCUGAUGCUCACAGAACAGUAGAGAUGCCUCAGUGAUUUAUUAAGUUGAAAGGACACCAACAGAGGAUUGAGCAUCA
B6: chr5:124080617:124080618:-_ENSMUSG00000049550_ENSMUST00000063905|mus_mus|motif|central (ssRNA)
RNA: GGGAGUUCUACAGUCCGACGAUCCUCCAUCUCUUUAGCAUGAGCAGACCGCUCAGAGUCCUGUUUACUCUGUAAACUUUCGGUUUCGUGCUGGUAAUCUAGUCUCAGUCUCUCUAUCUGUGUCUUUAACUCAGCAAAUUCAGCCAACAGAGGAUUGAGCAUCA
B7: chr10:12291664:12291665:+_ENSG00000151465_ENST00000378900|hu_hu|motif|central (ssRNA)
RNA: GGGAGUUCUACAGUCCGACGAUCGUUCCAGUACGCUCAUCAGUCGUCCUCCUGCUGAUUUCUCUUCAGCUUAAGGAAGUCGGUUAGCUUGUGAGCGUCCUCCCCAGUAGAGAGGUCUACAAAGUCCUUGGGUAGCCGGUAACUCAACAGAGGAUUGAGCAUCA
B8: 10056728_10056848_905_CDS_ENSMUSG00000056763_ENSMUST00000071087|mouse|control|control (ssRNA)
RNA: GGGAGUUCUACAGUCCGACGAUCAAACCUCUCGUCCAUGUCUUCACUCACACCAGGGUCUCGGUCGGCUCUGCAAUGUUGUCUGUCAAGCACCCGCUCCCCGUUAGCCCUGCGGGCUCUUCUCUCUGGGACACCAGCGCUGCCCAACAGAGGAUUGAGCAUCA
B9: chr5:54693298:54693299:+_ENSG00000039123_ENST00000230640|hu_mus|FALSE|FALSE (ssRNA)
RNA: GGGAGUUCUACAGUCCGACGAUCUUUUAAGACACUCUGUCUGUUGUCCACAGGUCGAAGGUCUUUUGGAAUAUAGAGCCUGACAGUGCUGAUGGCAGACAGGAGAUGCACCAAAACUGGAACAACCUGCAUCUCCCCUUUCUCCAACAGAGGAUUGAGCAUCA
B10: 142705494_142712874_349_3pUTR_ENSMUSG00000030282_ENSMUST00000032419|mouse|control|control (ssRNA)
RNA: GGGAGUUCUACAGUCCGACGAUCGAUGGACCUGUGCACCAAACUGUUUGGCCACAUUCUCAAUUUCAUCAUGGUCUGUUGAAACCCACACACUCUGGAAGACCCCCGCAUCCAGGGCGGCGCGCAGGACCCAGCCAAUGAGCGCAACAGAGGAUUGAGCAUCA
B11: chr17:65740002:65740003:+_ENSG00000130935_ENST00000581375|hu_hu|hu_hu_hu_mus_False|28_48 (ssRNA)
RNA: GGGAGUUCUACAGUCCGACGAUCAACAAAUCUUUCUUCCCUGGACGAACAGGAAGAUUCAUAUUAAAAAAAAUAUAUAUCCAUCAAGGAGAAUUGAGUGGCCACACAGAGCUCCAGAGCACUUUGGGAGGUGGAUCUCUGAGUCAACAGAGGAUUGAGCAUCA
B12: 125507366_125507486_2970_CDS_ENSMUSG00000029478_ENSMUST00000125053|mouse|control|control (ssRNA)
RNA: GGGAGUUCUACAGUCCGACGAUCUGGGUGAGGAGGCGGGCUCCCGGGCCGGGGGUUUGGUGAGGAAGGCAUGGCCAGCGUCCACACGGGGCCGCUCGGGCCGGGCGACCCGAGAGGUCUCCUUGGGUAACAGGACGGGCUCCACAACAGAGGAUUGAGCAUCA
B13: 76055227_76076951_758_CDS_ENSMUSG00000021589_ENSMUST00000022078|mouse|control|control (ssRNA)
RNA: GGGAGUUCUACAGUCCGACGAUCCCCUUCUGUGGUGGUAACACAGCUCCCUCGGUCUGAAGUACACAGGGGGCAUGUACAAGGUAAUUCUUCAUUUUGUCUCGUACCAACAGCCGCAAUGAUUACCGGAACUGAGUUUGAUGCCAACAGAGGAUUGAGCAUCA
B14: chr3:102833055:102833056:+_ENSMUSG00000068823_ENSMUST00000029446|mus_hu|motif|central (ssRNA)
RNA: GGGAGUUCUACAGUCCGACGAUCUUCAGUAGUAUUUGCUGAUUCUUCUUUUUCAGCACACGUUUCAAAGGAUGAAAGUUGCGGGUAUUAAAAAAAAGAGCGAGAGAAAAUGAUCUACCAAGCUAAUAAAGAAUACAACUGCUGCAACAGAGGAUUGAGCAUCA

Target: T1, UNK ZnF1-3
Assay: nsRBNS (natural sequence RNA bind-n-seq); RBNS binding buffer (assumed for nsRBNS): 25 mM Tris pH 7.5, 150 mM KCl, 3 mM MgCl2, 0.01% Triton X-100, 500 ug/ml BSA, 20 U/ml SUPERase-In, 4 C; UNK is unkempt and MSI1 is Musashi-1; names of the RNAs are library labels; protein concentration not given here; high values mean tight binding

Row | Binder | binding signal [enrichment R]
1 | B1 | 0.994
2 | B2 | 0.593
3 | B3 | 1.1
4 | B4 | 0.588
5 | B5 | 1.49
6 | B6 | 0.732
7 | B7 | 0.289
8 | B8 | 0.814
9 | B9 | 0.509
10 | B10 | 0.588
11 | B11 | 1.73
12 | B12 | 1.44
13 | B13 | 0.787
14 | B14 | 1.35
